Results from the supplement of paper PMC4166925.
± gives the standard deviation of the averaged measurements. Over roughly 33,000 sequences, “E-score (dimensionless, -0.5 to 0.5)” has its median near -0.049; the highest 2% begin near 0.37. Some of the results follow.

The sequences below were run on T1, PmTbr T-box DNA-binding domain (GST fusion) (assay: PBM E-score of 8-mer (E-score (dimensionless, -0.5 to 0.5)); Tbr is Tbrain of the sea star Patiria miniata (Pm) or the sea urchin Strongylocentrotus purpuratus (Sp); higher = stronger binding preference; most listed sequences are background and not binding sites). Settings: the construct has about 5 more residues each side.
T1 sequence: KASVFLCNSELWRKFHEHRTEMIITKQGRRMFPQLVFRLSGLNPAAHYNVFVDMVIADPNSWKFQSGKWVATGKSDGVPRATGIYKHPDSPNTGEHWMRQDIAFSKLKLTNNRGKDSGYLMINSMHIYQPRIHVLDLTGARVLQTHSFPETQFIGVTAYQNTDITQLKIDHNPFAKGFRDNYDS
Description: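 Universal protein-binding microarray (Agilent AMADID 016060, 60-bp probes with a 35-bp variable region) incubated with 200 nM GST-fused Patiria miniata Tbr T-box DNA-binding domain (residues 272-466) in PBS pH 7.5. Scored for every ungapped 8-mer (given with its reverse complement) by the Universal PBM Analysis Suite as E-score (modified Wilcoxon-Mann-Whitney enrichment, range -0.5 to 0.5; >0.45 counts as bound) and Z-score of median probe intensity. Two replicate arrays (datasets 1 and 2).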

Sequence | PBM E-score of 8-mer
CGAACTGC | 0.0894 ± 0.015
AGAAACTG | -0.138 ± 0.075
CTCCTGCC | -0.0358 ± 0.0023
GGCAATAA | -0.006 ± 0.01
AGTAAGGG | -0.082 ± 0.04
ATCTAGTG | -0.0333 ± 0.073
CAGATTGA | -0.0695 ± 0.024
CAATAGTG | 0.127 ± 0.061
GGTGGAGA | 0.0656 ± 0.021
CTGGTGAC | 0.221 ± 0.045
GGAAAGCA | -0.00256 ± 0.025
GATCAAGC | -0.0603 ± 0.017
AGGGGTGG | 0.212 ± 0.04
CAAGACTG | -0.152 ± 0.0087
CACACGTG | 0.376 ± 0.019
GAGCACCA | -0.0664 ± 0.018
CCGCCAAG | 0.0362 ± 0.074
CATCCGTA | -0.148 ± 0.018
CGCCTGGC | 0.206 ± 0.022
ACAAGACG | -0.0289 ± 0.038
GAAGGTGA | 0.406 ± 0.011
ACTACTGA | -0.256 ± 0.0037
GGGATGAA | -0.181 ± 0.045
AAAACTTC | 0.0341 ± 0.11
AGTGCTTC | -0.15 ± 0.097

Sequence | PBM E-score of 8-mer
AGCATTAC | -0.216 ± 0.015
ACTGCCGG | 0.056 ± 0.077
AAAGTATC | 0.0285 ± 0.0035
ATAAACCA | -0.164 ± 0.04
ATCGCCTC | 0.309 ± 0.025
AATCTCCG | -0.156 ± 0.013
TGCCTGAA | -0.204 ± 0.061
CTCGGCCC | -0.00153 ± 0.0094
ACTCACAG | 0.314 ± 0.043
CTCCGATC | -0.023 ± 0.038
AGGAATAG | -0.254 ± 0.029
GAGGCATA | -0.235 ± 0.005
CATTTCAA | -0.0254 ± 0.069
GCTGGAAA | -0.0875 ± 0.022
AGCTGACC | -0.327 ± 0.034
CGCGAACG | 0.375 ± 0.017
AAACGATC | 0.138 ± 0.04
CGGCCTCC | -0.251 ± 0.078
GAATAGGC | -0.104 ± 0.12
AAGGCCGA | -0.191 ± 0.09
ACCTACGC | 0.0812 ± 0.064
AGTAACAT | -0.247 ± 0.068
AGACGTAG | -0.255 ± 0.0081
ATGGACGC | -0.173 ± 0.026
AGGGCACA | -0.00764 ± 0.063

Sequence | PBM E-score of 8-mer
GATCCTCA | 0.167 ± 0.0084
GGGATCCC | -0.239 ± 0.004
ATGCCAGC | -0.0462 ± 0.0027
CAGTCTCA | 0.209 ± 0.019
AGCATGAT | -0.00898 ± 0.032
GCGACAAA | 0.36 ± 0.013
ACACTGAA | 0.069 ± 0.069
ATCTCAAA | -0.29 ± 0.025
GATATCAA | 0.0228 ± 0.067
GAACTGCA | -0.174 ± 0.064
TGTGGCAA | 0.252 ± 0.027
GACTCCAA | -0.118 ± 0.0065
CAAGACTA | -0.173 ± 0.059
CATGGGAG | -0.131 ± 0.057
GCTACAGA | 0.105 ± 0.004
CCTGACCA | 0.0195 ± 0.044
CGCGGTAG | 0.0761 ± 0.015
CAGACTTA | -0.148 ± 0.0086
AGATTGAA | -0.235 ± 0.04
TCTCCGAA | -0.176 ± 0.0043
AACATACC | 0.0158 ± 0.017
TCATACCA | -0.0579 ± 0.029
ACAGGATA | -0.138 ± 0.028
GCGGTAAA | -0.0591 ± 0.00065
ATACCTCC | -0.0427 ± 0.026

Sequence | PBM E-score of 8-mer
ACGCTCCA | -0.119 ± 0.0053
CCCGCCCG | -0.222 ± 0.022
ACCTCCCC | 0.00887 ± 0.0031
ATTGTCTA | -0.152 ± 0.0039
ATCTGATA | -0.0818 ± 0.094
GCAATCGC | 0.0879 ± 0.015
AATGGCTC | -0.104 ± 0.041
CGTAGGCA | -0.194 ± 0.035
CTAATTGA | 0.0172 ± 0.067
CCACAATA | -0.124 ± 0.072
ATAACAAC | 0.141 ± 0.035
ATATTAAC | -0.0921 ± 0.14
GCTCGTTA | -0.0211 ± 0.018
CCTAACTC | 0.0221 ± 0.055
CAAACGTC | -0.233 ± 0.045
GCATACCC | -0.23 ± 0.056
CTCTGCCA | 0.0266 ± 0.038
CTCGGACA | 0.0381 ± 0.03
GAACCCGA | -0.00182 ± 0.038
CAGAACGC | -0.147 ± 0.082
GCACTACC | 0.034 ± 0.025
AAAAGAAA | -0.0381 ± 0.04
AGGTAACA | 0.289 ± 0.02
GAATGAAC | -0.195 ± 0.049
GCAATCCC | -0.173 ± 0.014

Sequence | PBM E-score of 8-mer
AAGCAGCG | 0.0789 ± 0.062
ACAGTCGA | -0.146 ± 0.09
CTGTTCTC | 0.0542 ± 0.017
CGCGAACC | 0.328 ± 0.0044
AAGTTTTC | -0.0473 ± 0.066
CGACAAAG | 0.199 ± 0.0092
ATTCCTGC | -0.0932 ± 0.013
CAAATCTA | -0.0568 ± 0.0021
CCCTCGGC | -0.103 ± 0.022
GAGTCTCC | -0.291 ± 0.022
GCAAACAC | 0.294 ± 0.023
AAAGTCCT | -0.232 ± 0.0056
ACGCAAAG | -0.0407 ± 0.019
GTGTCTAA | 0.247 ± 0.00057
ACGACTTG | 0.196 ± 0.013
GTCCTATA | -0.406 ± 0.045
CATGAAGA | -0.0102 ± 0.0076
AAGGGAGT | 0.0112 ± 0.036
CGACGATA | -0.00792 ± 0.073
AAATGCAA | -0.138 ± 0.059
AACGTGGA | -0.224 ± 0.04
AGACGAAG | -0.189 ± 0.065
AGTTCTGA | -0.113 ± 0.0066
CGCGTATC | 0.192 ± 0.019
ATTCCGGG | -0.138 ± 0.033

Sequence | PBM E-score of 8-mer
AGGTAATC | 0.0129 ± 0.036
ATAAGACA | -0.234 ± 0.01
CAACTTCA | -0.0479 ± 0.0083
TGGGAACA | 0.109 ± 0.054
AAAGGGCA | -0.0167 ± 0.042
CTGCTTAC | -0.068 ± 0.033
AGCCCACG | -0.25 ± 0.017
ACAACAGC | 0.193 ± 0.01
ATCAATCC | -0.266 ± 0.019
CCGTCGAA | -0.136 ± 0.0057
AAATATTA | 0.0227 ± 0.073
ACGAGGTA | -0.046 ± 0.031
CCCCATAG | -0.0909 ± 0.046
GTGGACAC | 0.188 ± 0.022
CATATTTC | 0.004 ± 0.022
CCGATTGC | -0.0854 ± 0.016
CGTTCCCA | 0.00839 ± 0.055
CAACAATG | -0.00548 ± 0.031
ATAGTCCA | -0.172 ± 0.023
AGCATCAG | -0.172 ± 0.002
CTTGAAAG | -0.174 ± 0.1
CTATAGGC | -0.0995 ± 0.037
GCGCGAGC | 0.235 ± 0.055
CCACCGAG | -0.107 ± 0.017
ACTTGTAT | -0.126 ± 0.018

Sequence | PBM E-score of 8-mer
GGGCAACC | -0.247 ± 0.019
ACACTATG | 0.349 ± 0.028
AGCTCAAG | -0.169 ± 0.058
CCGCAAAC | -0.0182 ± 0.0088
TACCCAAA | -0.164 ± 0.0061
GGGGTGAC | 0.3431 ± 0.0017
CTGAGTTC | -0.0631 ± 0.02
CTCACTCC | 0.174 ± 0.071
GCACGCGA | 0.143 ± 0.018
CTAAGTCC | -0.257 ± 0.091
CCCTGGAA | -0.221 ± 0.0054
AGCACGGA | -0.134 ± 0.039
CGTTGTCC | -0.0685 ± 0.018
ACACACCC | 0.327 ± 0.015
TGGATAAA | -0.199 ± 0.014
ACGTATCC | -0.307 ± 0.029
CCCGGGAC | -0.164 ± 0.0078
TCACAAAA | 0.132 ± 0.083
CTTGTGTC | 0.122 ± 0.039
TCCATAGA | -0.0836 ± 0.042
GTACACTA | -0.147 ± 0.044
CCTGCCGA | -0.0434 ± 0.037
CTATGGCC | -0.148 ± 0.049
CCCGAGGC | 0.173 ± 0.016
ATGCCAAG | -0.216 ± 0.012

Sequence | PBM E-score of 8-mer
CCAACTCG | 0.083 ± 0.024
ACGGGTTA | -0.199 ± 0.043
TAGTGTGA | 0.446 ± 0.0044
AGTCGCGA | 0.357 ± 0.012
AGCTATCC | -0.334 ± 0.059
CTACACGC | 0.0918 ± 0.046
ACAAATGG | -0.0508 ± 0.12
CTGTACTA | -0.0788 ± 0.016
AAGTTACA | 0.0427 ± 0.067
CACATGGC | 0.213 ± 0.011
GATTAAAA | -0.0667 ± 0.028
AGAAGACC | -0.173 ± 0.008
AGGTTCAT | -0.07428 ± 0.00047
CGTAACTC | -0.28 ± 0.098
CCGCGTGC | 0.0114 ± 0.058
CATACCAC | 0.055 ± 0.054
GGCGGCCC | -0.171 ± 0.016
AACATTCA | -0.0317 ± 0.013
GTCGTTGA | 0.113 ± 0.0055
CCATTAGG | -0.2221 ± 0.0014
CGAACGAG | -0.103 ± 0.0025
CGAGAGAG | 0.0817 ± 0.016
AATACGAC | -0.00574 ± 0.041
AGCGGCTC | 0.0646 ± 0.0087
AATCTGGA | -0.213 ± 0.026

Sequence | PBM E-score of 8-mer
CCGGATAC | -0.261 ± 0.042
AATACATC | -0.109 ± 0.044
GGCCATAA | -0.0657 ± 0.044
ACTTACTA | -0.139 ± 0.014
ATACCCCA | -0.209 ± 0.058
CTTTCTAA | -0.264 ± 0.043
AAATCCCT | -0.112 ± 0.029
ACCCCACC | -0.00897 ± 0.0085
CAAGATCA | 0.055 ± 0.032
AGGATCAA | -0.16 ± 0.017
ATAATCTG | -0.149 ± 0.026
CGACTCAG | -0.0525 ± 0.0052
GCAAGGTA | 0.0665 ± 0.087
CCTATGAA | -0.158 ± 0.039
GGATACAA | -0.0441 ± 0.036
CAGCCCCA | -0.069 ± 0.039
GAGTCTCA | 0.1181 ± 0.00078
AGACATTA | -0.0752 ± 0.0077
TGGGGACA | -0.0424 ± 0.075
